# Some of the results follow.
# B1: Nc3LysM (protein)
# chain: QFTVPPDTTAEPNTIKTCTWWHVAGSGDSCTSIASTYGITSEQFARWDMETTDSPKNPSVATACKLTVGNSYCIENNFGQDDPPTPSISSSTLIGTATTSTTASTTTGNGISTPTPIQEGMETATTTTSSGNGITTPTPTQAGMETVGNCDRFHLVKSGDQCGTIASTYGITLANFYSWNPAVGTSCQSLWLDTYVCVRTIGFVPPKTTTTTTKKPTSTTSAGGVATPTPTQPGMETVSGCKKFHKGRGNVSTVASGDQCGTIATRYGISLANFYSWNPAVGSSCQTLWLDYYVCVGR
# Assays:
# Experiment in all cases: glycan array binding signal (z-score within array); higher = stronger binding
# Conditions in all cases: glycan notation: IUPAC condensed, linker removed
# [1] = target: GlcNAc(b1-3)Gal(b1-4)GlcNAc(b1-3)Gal(b1-4)GlcNAc(b1-2)Man(a1-3)[GlcNAc(b1-3)Gal(b1-4)GlcNAc(b1-3)Gal(b1-4)GlcNAc(b1-2)Man(a1-6)]Man(b1-4)GlcNAc(b1-4)[Fuc(a1-6)]GlcNAc
# Method in brief: (§1)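 Negative Z-scores can be read as non-binding. The Z-score is calculated within each array and then averaged across arrays of one protein sequence at different concentrations or buffers and across linkers. Arrays, 3228 in all, were curated from the Consortium for Functional Glycomics database and kept only where the protein sequence was available.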
# [2] = target: GlcNAc(b1-3)Gal(b1-4)GlcNAc(b1-3)Gal(b1-4)GlcNAc(b1-2)[GlcNAc(b1-3)Gal(b1-4)GlcNAc(b1-3)Gal(b1-4)GlcNAc(b1-6)]Man(a1-6)[GlcNAc(b1-3)Gal(b1-4)GlcNAc(b1-3)Gal(b1-4)GlcNAc(b1-2)Man(a1-3)]Man(b1-4)GlcNAc(b1-4)[Fuc(a1-6)]GlcNAc
# Method in brief: as §1
# [3] = target: GlcNAc(b1-3)Gal(b1-4)GlcNAc(b1-3)Gal(b1-4)GlcNAc(b1-3)Gal(b1-4)GlcNAc(b1-2)Man(a1-3)[GlcNAc(b1-3)Gal(b1-4)GlcNAc(b1-3)Gal(b1-4)GlcNAc(b1-3)Gal(b1-4)GlcNAc(b1-2)Man(a1-6)]Man(b1-4)GlcNAc(b1-4)GlcNAc
# Method in brief: as §1
# [4] = target: GlcNAc(b1-3)Gal(b1-4)GlcNAc(b1-3)Gal(b1-4)GlcNAc(b1-3)Gal(b1-4)GlcNAc(b1-2)Man(a1-3)[GlcNAc(b1-3)Gal(b1-4)GlcNAc(b1-3)Gal(b1-4)GlcNAc(b1-3)Gal(b1-4)GlcNAc(b1-2)Man(a1-6)]Man(b1-4)GlcNAc(b1-4)[Fuc(a1-6)]GlcNAc
# Method in brief: as §1
# [5] = target: GlcNAc(b1-3)Gal(b1-4)GlcNAc(b1-3)Gal(b1-4)GlcNAc(b1-3)Gal(b1-4)GlcNAc(b1-2)[GlcNAc(b1-3)Gal(b1-4)GlcNAc(b1-3)Gal(b1-4)GlcNAc(b1-3)Gal(b1-4)GlcNAc(b1-6)]Man(a1-6)[GlcNAc(b1-3)Gal(b1-4)GlcNAc(b1-3)Gal(b1-4)GlcNAc(b1-3)Gal(b1-4)GlcNAc(b1-2)Man(a1-3)]Man(b1-4)GlcNAc(b1-4)[Fuc(a1-6)]GlcNAc
# Method in brief: as §1
# [6] = target: GlcNAc(b1-3)Gal(b1-4)GlcNAc(b1-3)Gal(b1-4)GlcNAc(b1-3)Gal(b1-4)GlcNAc(b1-3)Gal(b1-4)GlcNAc(b1-2)Man(a1-3)[GlcNAc(b1-3)Gal(b1-4)GlcNAc(b1-3)Gal(b1-4)GlcNAc(b1-3)Gal(b1-4)GlcNAc(b1-3)Gal(b1-4)GlcNAc(b1-2)Man(a1-6)]Man(b1-4)GlcNAc(b1-4)GlcNAc
# Method in brief: as §1
# [7] = target: GlcNAc(b1-3)Gal(b1-4)GlcNAc(b1-3)Gal(b1-4)GlcNAc(b1-3)Gal(b1-4)GlcNAc(b1-3)Gal(b1-4)GlcNAc(b1-2)Man(a1-3)[GlcNAc(b1-3)Gal(b1-4)GlcNAc(b1-3)Gal(b1-4)GlcNAc(b1-3)Gal(b1-4)GlcNAc(b1-3)Gal(b1-4)GlcNAc(b1-2)Man(a1-6)]Man(b1-4)GlcNAc(b1-4)[Fuc(a1-6)]GlcNAc
# Method in brief: as §1
# [8] = target: GlcNAc(b1-3)Gal(b1-4)GlcNAc(b1-3)Gal(b1-4)GlcNAc(b1-3)Gal(b1-4)GlcNAc(b1-3)Gal(b1-4)GlcNAc(b1-2)[GlcNAc(b1-3)Gal(b1-4)GlcNAc(b1-3)Gal(b1-4)GlcNAc(b1-3)Gal(b1-4)GlcNAc(b1-3)Gal(b1-4)GlcNAc(b1-6)]Man(a1-6)[GlcNAc(b1-3)Gal(b1-4)GlcNAc(b1-3)Gal(b1-4)GlcNAc(b1-3)Gal(b1-4)GlcNAc(b1-3)Gal(b1-4)GlcNAc(b1-2)Man(a1-3)]Man(b1-4)GlcNAc(b1-4)[Fuc(a1-6)]GlcNAc
# Method in brief: as §1
# [9] = target: GlcNAc(b1-3)Gal(b1-4)GlcNAc(b1-3)Gal(b1-4)GlcNAc(b1-3)GalNAc
# Method in brief: as §1
# [10] = target: GlcNAc(b1-3)Gal(b1-4)GlcNAc(b1-3)GalNAc
# Method in brief: as §1
# [11] = target: GlcNAc(b1-3)Gal(b1-4)GlcNAc(b1-3)[GlcNAc(b1-3)Gal(b1-4)GlcNAc(b1-3)]GalNAc
# Method in brief: as §1
# [12] = target: GlcNAc(b1-3)Gal(b1-4)GlcNAc(b1-6)[Gal(b1-3)]GalNAc
# Method in brief: as §1
# [13] = target: GlcNAc(b1-3)Gal(b1-4)GlcNAc(b1-6)[GlcNAc(b1-3)Gal(b1-3)]GalNAc
# Method in brief: as §1
# [14] = target: GlcNAc(b1-3)Gal(b1-4)GlcNAc(b1-6)[GlcNAc(b1-3)]Gal(b1-4)GlcNAc
# Method in brief: as §1
# GlcNAc(b1-3)GalNAc = target: GlcNAc(b1-3)GalNAc
# Method in brief: as §1
# GlcNAc(b1-3)Man = target: GlcNAc(b1-3)Man
# Method in brief: as §1
# [15] = target: GlcNAc(b1-3)[GlcNAc(b1-4)][GlcNAc(b1-6)]GlcNAc
# Method in brief: as §1
# [16] = target: GlcNAc(b1-3)[GlcNAc(b1-6)]Gal(b1-4)GlcNAc
# Method in brief: as §1
# [17] = target: GlcNAc(b1-3)[GlcNAc(b1-6)]GalNAc
# Method in brief: as §1
# [18] = target: GlcNAc(b1-4)Gal(b1-4)GlcNAc
# Method in brief: as §1
# GlcNAc(b1-4)GlcNAc = target: GlcNAc(b1-4)GlcNAc
# Method in brief: as §1
# [19] = target: GlcNAc(b1-4)GlcNAc(b1-4)GlcNAc
# Method in brief: as §1
# [20] = target: GlcNAc(b1-4)GlcNAc(b1-4)GlcNAc(b1-4)GlcNAc(b1-4)GlcNAc
# Method in brief: as §1
# [21] = target: GlcNAc(b1-4)GlcNAc(b1-4)GlcNAc(b1-4)GlcNAc(b1-4)GlcNAc(b1-4)GlcNAc
# Method in brief: as §1
# [22] = target: GlcNAc(b1-4)[GlcNAc(b1-6)]GalNAc
# Method in brief: as §1
# [23] = target: GlcNAc(b1-6)Gal(b1-4)GlcNAc
# Method in brief: as §1
# GlcNAc(b1-6)GalNAc = target: GlcNAc(b1-6)GalNAc
# Method in brief: as §1
# [24] = target: GlcNAc6S(b1-3)Gal(b1-4)GlcNAc
# Method in brief: as §1
# Kdn(a2-3)Gal(b1-3)GalNAc = target: Kdn(a2-3)Gal(b1-3)GalNAc
# Method in brief: as §1
# Kdn(a2-3)Gal(b1-3)GlcNAc = target: Kdn(a2-3)Gal(b1-3)GlcNAc
# Method in brief: as §1
# Kdn(a2-3)Gal(b1-4)Glc = target: Kdn(a2-3)Gal(b1-4)Glc
# Method in brief: as §1
# Kdn(a2-3)Gal(b1-4)GlcNAc = target: Kdn(a2-3)Gal(b1-4)GlcNAc
# Method in brief: as §1
# [25] = target: Kdn(a2-3)Gal(b1-4)[Fuc(a1-3)]GlcNAc
# Method in brief: as §1
# Kdn(a2-6)Gal(b1-4)GlcNAc = target: Kdn(a2-6)Gal(b1-4)GlcNAc
# Method in brief: as §1
# [26] = target: Man(a1-2)Man(a1-2)Man(a1-3)Man
# Method in brief: as §1
# [27] = target: Man(a1-2)Man(a1-2)Man(a1-6)[Man(a1-3)]Man
# Method in brief: as §1
# Man(a1-2)Man(a1-3)Man = target: Man(a1-2)Man(a1-3)Man
# Method in brief: as §1
# [28] = target: Man(a1-2)Man(a1-3)[Man(a1-2)Man(a1-6)]Man
# Method in brief: as §1
binder,measurement,setting,value
B1,glycan array binding signal (z-score),[1],0.093
same,glycan array binding signal (z-score),[2],-0.011
same,glycan array binding signal (z-score),[3],-0.013
same,glycan array binding signal (z-score),[4],0.146
same,glycan array binding signal (z-score),[5],0.072
same,glycan array binding signal (z-score),[6],-0.036
same,glycan array binding signal (z-score),[7],-0.089
same,glycan array binding signal (z-score),[8],0.075
same,glycan array binding signal (z-score),[9],0.002
same,glycan array binding signal (z-score),[10],-0.022
same,glycan array binding signal (z-score),[11],-0.308
same,glycan array binding signal (z-score),[12],-0.184
same,glycan array binding signal (z-score),[13],-0.251
same,glycan array binding signal (z-score),[14],0.184
same,glycan array binding signal (z-score),GlcNAc(b1-3)GalNAc,0.056
same,glycan array binding signal (z-score),GlcNAc(b1-3)Man,0.172
same,glycan array binding signal (z-score),[15],-0.087
same,glycan array binding signal (z-score),[16],-0.279
same,glycan array binding signal (z-score),[17],-0.162
same,glycan array binding signal (z-score),[18],0.016
same,glycan array binding signal (z-score),GlcNAc(b1-4)GlcNAc,-0.028
same,glycan array binding signal (z-score),[19],2.52
same,glycan array binding signal (z-score),[20],17.3
same,glycan array binding signal (z-score),[21],16.7
same,glycan array binding signal (z-score),[22],-0.069
same,glycan array binding signal (z-score),[23],0.007
same,glycan array binding signal (z-score),GlcNAc(b1-6)GalNAc,-0.113
same,glycan array binding signal (z-score),[24],-0.118
same,glycan array binding signal (z-score),Kdn(a2-3)Gal(b1-3)GalNAc,-0.184
same,glycan array binding signal (z-score),Kdn(a2-3)Gal(b1-3)GlcNAc,-0.059
same,glycan array binding signal (z-score),Kdn(a2-3)Gal(b1-4)Glc,-0.043
same,glycan array binding signal (z-score),Kdn(a2-3)Gal(b1-4)GlcNAc,0.027
same,glycan array binding signal (z-score),[25],0.038
same,glycan array binding signal (z-score),Kdn(a2-6)Gal(b1-4)GlcNAc,-0.076
same,glycan array binding signal (z-score),[26],0.193
same,glycan array binding signal (z-score),[27],-0.063
same,glycan array binding signal (z-score),Man(a1-2)Man(a1-3)Man,0.234
same,glycan array binding signal (z-score),[28],-0.221

# — the supplement of paper PMC8728848
